Test results as given in patent publication US20250129160A1 (Amgen, published 2025).
Ends that are not written are not given here.

T1: CCR8 P_1-12 peptide construct (human, not fully specified (C-terminus); also: BAP biotinylated in vivo, fused construct pieces' sequences not given here)
T1 construct: coupled to streptavidin beads; not shown: G4S linker, V5 tag, G4S linker, chicken albumin, then FLAG tag, BAP and H3G each via SG linker
T1 chain: MDYTLDLSVTTV

T2: CCR8 P_7-18 peptide construct (human, not fully specified (C-terminus); also: BAP biotinylated in vivo, fused construct pieces' sequences not given here)
T2 construct: coupled to streptavidin beads; not shown: G4S linker, V5 tag, G4S linker, chicken albumin, then FLAG tag, BAP and H3G each via SG linker
T2 chain: LSVTTVTDYYYP

T3: CCR8 P_13-24 peptide construct (human, not fully specified (C-terminus); also: BAP biotinylated in vivo, fused construct pieces' sequences not given here)
T3 construct: coupled to streptavidin beads; not shown: G4S linker, V5 tag, G4S linker, chicken albumin, then FLAG tag, BAP and H3G each via SG linker
T3 chain: TDYYYPDIFSSP

T4: CCR8 P_19-30 peptide construct (human, not fully specified (C-terminus); also: BAP biotinylated in vivo, fused construct pieces' sequences not given here)
T4 construct: coupled to streptavidin beads; not shown: G4S linker, V5 tag, G4S linker, chicken albumin, then FLAG tag, BAP and H3G each via SG linker
T4 chain: DIFSSPCDAELI

T5: CCR8 P_25-35 peptide construct (human, not fully specified (C-terminus); also: BAP biotinylated in vivo, fused construct pieces' sequences not given here)
T5 construct: coupled to streptavidin beads; not shown: G4S linker, V5 tag, G4S linker, chicken albumin, then FLAG tag, BAP and H3G each via SG linker
T5 chain: CDAELIQTNGK

T6: cynomolgus monkey CCR8 (T4R), Mauritian origin (cynomolgus monkey, UniProt O97665 1-356 (rhesus entry))
T6 construct: also called cy CCR8 (T4R); Cy CCR8 (T4R)
T6 chain: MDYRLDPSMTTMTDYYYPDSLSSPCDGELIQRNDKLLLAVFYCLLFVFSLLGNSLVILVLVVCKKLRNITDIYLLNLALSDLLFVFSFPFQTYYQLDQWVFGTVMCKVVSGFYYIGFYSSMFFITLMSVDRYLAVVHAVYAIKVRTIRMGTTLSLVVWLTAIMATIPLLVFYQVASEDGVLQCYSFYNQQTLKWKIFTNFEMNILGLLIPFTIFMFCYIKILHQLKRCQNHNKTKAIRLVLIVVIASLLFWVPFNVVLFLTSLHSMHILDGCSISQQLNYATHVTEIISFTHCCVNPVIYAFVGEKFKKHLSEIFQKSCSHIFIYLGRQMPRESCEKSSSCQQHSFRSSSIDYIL


Experiments:
human CCR8 [1] = target: T7, human CCR8 (human, UniProt P51685 1-355); experiment: cell-based or functional assay
[2] = target: T8, cynomolgus monkey CCR8 (Chinese origin) (cynomolgus monkey, UniProt O97665 1-356 (rhesus entry)); experiment: cyno Kd divided by human Kd
T8 construct: on transfected CHO cells; also called cyno CCR8; Cy CCR8

human CCR8 [3] = target: T7, human CCR8; experiment: flow cytometry, CHO cells expressing human CCR8
[4] = target: T8, cynomolgus monkey CCR8 (Chinese origin); experiment: flow cytometry, CHO cells expressing cynomolgus CCR8
[5] = target: T9, CCR8 P_1-35 peptide construct (full-length N-terminal peptide of human CCR8) (human, BAP biotinylated in vivo); experiment: flow cytometry, peptide construct on streptavidin beads, 5 µg/mL
T9 construct: from HEK 293 supernatant, coupled to streptavidin beads; not shown: G4S linker, V5 tag, G4S linker, chicken albumin, then FLAG tag, BAP and H3G each via SG linker

[6] = target: T1, CCR8 P_1-12 peptide construct; experiment: as above
[7] = target: T2, CCR8 P_7-18 peptide construct; experiment: as above
[8] = target: T3, CCR8 P_13-24 peptide construct; experiment: as above
[9] = target: T4, CCR8 P_19-30 peptide construct; experiment: as above
[10] = target: T5, CCR8 P_25-35 peptide construct; experiment: as above
[11] = target: T6, cynomolgus monkey CCR8 (T4R), Mauritian …; experiment: cyno (T4R) Kd divided by human Kd
[12] = target: T6, cynomolgus monkey CCR8 (T4R), Mauritian …; experiment: flow cytometry, CHO cells expressing cynomolgus CCR8 (T4R)

| Affinity gap Kdcy/Kdhu CCR8 [2] [ratio] | Kd (human CCR8 [3]) [nM] | Kd [4] [nM] | Median Fluorescence of Sample/Median Fluorescence of Negative Control [5] [ratio] | Median Fluorescence of Sample/Median Fluorescence of Negative Control [6] [ratio] | Median Fluorescence of Sample/Median Fluorescence of Negative Control [7] [ratio] | Median Fluorescence of Sample/Median Fluorescence of Negative Control [8] [ratio] | Median Fluorescence of Sample/Median Fluorescence of Negative Control [9] [ratio] | Median Fluorescence of Sample/Median Fluorescence of Negative Control [10] [ratio] | Affinity gap Kdcy (T4R)/Kdhu CCR8 [11] [ratio] | Kd [12] [nM] | Binder | EC50, 48-hour FACS based cytotoxicity assay, HUT-78 (CD3+) (human CCR8 [1]) [nM] |
| --- | --- | --- | --- | --- | --- | --- | --- | --- | --- | --- | --- | --- |
| 21.1 | 12.8 | 271 | 1280 | 1 | 1 | 1090 | 1.1 | 1.1 | – | – | CCR8 TCE3 scFab × I2E × scFc (bispecific antibody, single chain; also called TCE3 scFab (CCR8) x scFv (CD3) x scFc) QVQLVESGGGVVQPGRSLRLSCEASGFTFSSYVMHWVRQAPGKGLEWVSVISYDGSSQYYTDSVKGRFTISRDNSKNTLNLQMNSLRAEDTAVYYCVRGRLATAILFDYWGQGTLVTVSSASTKGPSVFPLAPSSKSTSGGTAALGCLVKDYFPEPVTVSWNSGALTSGVHTFPAVLQSSGLYSLSSVVTVPSSSLGTQTYICNVNHKPSNTKVDKKVEPKSCGGGGQGGGGQGGGGQGGGGQGGGGQGGGGQGGGGQGGGGQEILMTQTPLSLSVTPGQPASISCKSSQSLLYSDGKTYLFWYLQRPGQPPQLLIYEVSNRFSGVPDRFSGSGSGTDFTLKISRVEAEDVGIYYCMQSIKLPLTFGGGTKVEIKRTVAAPSVFIFPPSDEQLKSGTASVVCLLNNFYPREAKVQWKVDNALQSGNSQESVTEQDSKDSTYSLSSTLTLSKADYEKHKVYACEVTHQGLSSPVTKSFNRGECSGGGGQEVQLVESGGGLVQPGGSLKLSCAASGFTFNKYAINWVRQAPGKGLEWVARIRSKYNNYATYYADAVKDRFTISRDDSKNTVYLQMNNLKTEDTAVYYCARAGNFGSSYISYWAYWGQGTLVTVSSGGGGQGGGGQGGGGQQTVVTQEPSLTVSPGGTVTIT[about 80 residues not given here]FGSGTKLTVLGGGGCPPCPAPELLGGPSVFLFPPKPKDTLMISRTPEVTCVVVDVSHEEPEVKFNWYVDGVEVHNAKTKPCEEQYGSTYRCVSVLTVLHQDWLNGKEYKCKVSNKALPAPIEKTISKAKGQPREPQVYTLPPSREEMTKNQVSLTCLVKGFYPSDIAVEWESNGQPENNYKTTPPVLDSDGSFFLYSKLTVDKSRWQQGNVFSCSVMHEALHNHYTQKSLSLSPGKGGGGQGGGGQGGGGQGGGGQGGGGQGGGGQCPPCPAPELLGGPSVFLFPPKPKDTLMISRTPEVTCVVVDVSHEEPEVKFNWYVDGVEVHNAKTKPCEEQYGSTYRCVSVLTVLHQDWLNGKEYKCKVSNKALPAPIEKTISKAKGQPREPQVYTLPPSREEMTKNQVSLTCLVKGFYPSDIAVEWESNGQPENNYKTTPPVLDSDGSFFLYSKLTVDKSRWQQGNVFSCSVMHEALHNHYTQKSLSLSPGK | 0.478 |
| 40 | 11.4 | 456 | 1170 | 1 | 1 | 996 | 1.1 | 1.1 | 111 | 1260 | CCR8 TCE4 scFab × I2E × scFc (bispecific antibody, single chain; also called TCE4 CCR8 scFab (CCR8) x scFv (CD3) x scFc) QVQLVESGGGVVQPGRSLRLSCAASGFTFSSYGMHWVRQAPGKGLEWVAVISYDGSNKYYADSVKGRFTISRDNSKNTLYLQMNSLRAEDTAVYYCARGRYFDWFLFDYWGQGTLVTVSSASTKGPSVFPLAPSSKSTSGGTAALGCLVKDYFPEPVTVSWNSGALTSGVHTFPAVLQSSGLYSLSSVVTVPSSSLGTQTYICNVNHKPSNTKVDKKVEPKSCGGGGQGGGGQGGGGQGGGGQGGGGQGGGGQGGGGQGGGGQDTVMTQTPLSLSVTPGQPASISCKSSQSLLHSDGKTYLFWYLQKPGQPPQLLISEVSNRFSGVPDRFSGSGSGTDFTLKISRVEAEDVGFYYCMQSLRLPLTFGGGTKVEIKRTVAAPSVFIFPPSDEQLKSGTASVVCLLNNFYPREAKVQWKVDNALQSGNSQESVTEQDSKDSTYSLSSTLTLSKADYEKHKVYACEVTHQGLSSPVTKSFNRGECSGGGGQEVQLVESGGGLVQPGGSLKLSCAASGFTFNKYAINWVRQAPGKGLEWVARIRSKYNNYATYYADAVKDRFTISRDDSKNTVYLQMNNLKTEDTAVYYCARAGNFGSSYISYWAYWGQGTLVTVSSGGGGQGGGGQGGGGQQTVVTQEPSLTVSPGGTVTIT[about 80 residues not given here]FGSGTKLTVLGGGGCPPCPAPELLGGPSVFLFPPKPKDTLMISRTPEVTCVVVDVSHEEPEVKFNWYVDGVEVHNAKTKPCEEQYGSTYRCVSVLTVLHQDWLNGKEYKCKVSNKALPAPIEKTISKAKGQPREPQVYTLPPSREEMTKNQVSLTCLVKGFYPSDIAVEWESNGQPENNYKTTPPVLDSDGSFFLYSKLTVDKSRWQQGNVFSCSVMHEALHNHYTQKSLSLSPGKGGGGQGGGGQGGGGQGGGGQGGGGQGGGGQCPPCPAPELLGGPSVFLFPPKPKDTLMISRTPEVTCVVVDVSHEEPEVKFNWYVDGVEVHNAKTKPCEEQYGSTYRCVSVLTVLHQDWLNGKEYKCKVSNKALPAPIEKTISKAKGQPREPQVYTLPPSREEMTKNQVSLTCLVKGFYPSDIAVEWESNGQPENNYKTTPPVLDSDGSFFLYSKLTVDKSRWQQGNVFSCSVMHEALHNHYTQKSLSLSPGK | 1.25 |
